Patent US20250032631A1, “ANTI-SEZ6 ANTIBODY DRUG CONJUGATES” (AbbVie Inc., priority 2022, published 2025)
“And” between values parts separate entries of the source, which are not always exact repeats. Identical values can stand only once.

Tests used:
NCI-H524 = assay: SCLC cell viability assay (CellTiter-Glo), NCI-H524; type: cell-based; conditions: NCI-H524, ADC treatment, 10 days; read-out: IC50, 50% growth inhibition
Protocol: (§1) SCLC cell lines NCI-H526 (“H526”), NCI-H524 (“H524”), NCI-H146 (“H146”), NCI-H1963 (“H1963”) and SW-1271 were obtained from the American Type Culture Collection (ATCC). COR-L95 cells were obtained from Millipore Sigma (#96020733). SBC-5 cells were obtained from the Japanese Collection of Research Bioresources Cell Bank (JCRB).
(§2) SCLC cell lines (shown in Table 2, column 1) were plated in white 384-well plates (Corning® 3765) at 1,000-2,000 cells/30 μl RPMI-1640 base media containing 10% heat-inactivated FBS (fetal bovine serum). Cell plates were incubated overnight at 37° C. in 5% CO2. Using a Tecan D300e Digital Dispenser, a dose response using a stock concentration of ADC or solution containing Example 1G and DMSO (dimethyl sulfoxide) was applied to the cells on day 0 and incubated for an additional 10 days (ADCs) or 3 days (Example 1G) at 37°° C. in 5% CO2. Samples were run in duplicate. Cell viability was assessed with the CellTiter-Glo™ Luminescent Cell Viability Assay (Promega, #G7570) according to the manufacturer's instructions, with the exception that the plates were shaken for 30 minutes prior to reading. Luminescence was read on the BioTek Synergy Neo2, and data was analyzed using GraphPad Prism software.

NCI-H526 = assay: SCLC cell viability assay (CellTiter-Glo), NCI-H526; type: cell-based; conditions: NCI-H526, ADC treatment, 10 days; read-out: IC50, 50% growth inhibition
Protocol: as §1, §2

COR-L95 = assay: SCLC cell viability assay (CellTiter-Glo), COR-L95; type: cell-based; conditions: COR-L95, ADC treatment, 10 days; read-out: IC50, 50% growth inhibition
Protocol: as §1, §2

NCI-H146 = assay: SCLC cell viability assay (CellTiter-Glo), NCI-H146; type: cell-based; conditions: NCI-H146, ADC treatment, 10 days; read-out: IC50, 50% growth inhibition
Protocol: as §1, §2

NCI-H1963 = assay: SCLC cell viability assay (CellTiter-Glo), NCI-H1963; type: cell-based; conditions: NCI-H1963, ADC treatment, 10 days; read-out: IC50, 50% growth inhibition
Protocol: as §1, §2

SW-1271 = assay: SCLC cell viability assay (CellTiter-Glo), SW-1271; type: cell-based; conditions: SW-1271 (SEZ6 negative), ADC treatment, 10 days; read-out: IC50, 50% growth inhibition
Protocol: as §1, §2

SBC-5 = assay: SCLC cell viability assay (CellTiter-Glo), SBC-5; type: cell-based; conditions: SBC-5 (SEZ6 negative), ADC treatment, 10 days; read-out: IC50, 50% growth inhibition
Protocol: as §1, §2

SCLC cell lines = assay: SCLC cell viability assay, summary over the cell line panel; type: cell-based
Protocol: as §1
as §2, with “software. […]” for “software.”

H1963 tumor = assay: H1963 cell-line derived xenograft (CDX) mouse model; type: in vivo
Protocol: (§3) Adult female SCID-bg (Fox Chase SCID Beige Mouse) or SCID CB.17 (Fox Chase SCID Mouse) mice (approximately 22 g) were obtained from Charles River (Wilmington, MA). The mice were housed in groups of ten in solid bottom Plexiglas cages equipped with constant air circulation in a facility approved by Association for Assessment and Accreditation of Laboratory Animal Care International (AAALAC). Animals were tested in the light phase of a 12 hour light: dark cycle.
(§4) NCI-H69 (“H69”), NCI-H1963 (“H1963”), and NCI-H526 (“H526”) cells were obtained from the American Type Culture Collection (ATCC, Manassas, VA). The cells were maintained in 10% RPMI-1640 media. Cell culture media was obtained from Invitrogen (Carlsbad, CA) and supplemented with 10% fetal bovine serum (Hyclone, Logan, UT).
(§5) Five million cells were inoculated subcutaneously into the right flank of the mice on day 0. The injection volume was 0.1 mL composed of a 1:1 mixture of culture medium and matrigel (BD, Franklin Lakes, NJ). Tumors were size matched at approximately 200 mm^3. Therapy began 24 hours after size matching the tumors. There were four treatment groups: (1) vehicle; (2) ADC-1; (3) ADC-2; and (4) topotecan (ADC-1, ADC-2, and topotecan were formulated in vehicle). Each was administered once a day. Tumor volume was calculated two to three times weekly. Measurements of the length (L) and width (W) of the tumor were taken via electronic caliper and the volume was calculated according to the following equation: […]
(§6) Parameters of amplitude (TGImax) and durability (TGD) of therapeutic response were used to refer to the efficacy of the drug. TGImax is the maximum tumor growth inhibition during the experiment. Tumor growth inhibition (TGI) was calculated by 100*(1−Tv/Cv) where Tv and Cv are the mean tumor volumes of the treated and control groups, respectively. […] TGD was calculated by 100*(Tt/Ct−1) where Tt and Ct are the median time periods to reach 1 cm^3 of the treated and control groups, respectively.

H526 tumor = assay: H526 cell-line derived xenograft (CDX) mouse model; type: in vivo
Protocol: as §3, §4, §5, §6

LU95 SCLC PDX tumor = assay: LU95 patient-derived xenograft (PDX) mouse model; type: in vivo; conditions: LU95, single ip dose
Protocol: (§7) SCLC patient-derived xenograft (PDX) models were established from stage IV tumors as previously described (Anderson, et al. 2015 PLOS One; PMID: 25955027), and passaged in mice to generate sufficient cell numbers to inject single cell suspensions subcutaneously in lower right mammary fat pads of NOD/SCID immune compromised mice for an efficacy study. Once tumor cells were injected, tumor volumes were collected using a caliper to measure the length and width, and tumor volume was calculated using the formula of an ellipsoid (volume=length×width×width×0.5, where the width is shorter than the length; units: mm^3). After tumors reached a range of 90 to 300 mm^3, mice were randomized into treatment groups of five to ten mice per group, where each group had approximately the same average tumor volume. […] Efficacy was measured by monitoring tumor volume over time, and data were plotted in GraphPad Prism.
as §6, with “TGImax is the maximum tumor growth inhibition during the experiment.” left out

LU149 SCLC PDX tumor = assay: LU149 patient-derived xenograft (PDX) mouse model; type: in vivo; conditions: LU149, single ip dose
Protocol: as §7
as §6, with “TGImax is the maximum tumor growth inhibition during the experiment.” left out

[1] = test system: SCLC xenografts (H1963, H526, LU95, LU149); assay: SCLC CDX and PDX xenograft models, summary; type: in vivo, mouse; conditions: topotecan one cycle approximating human clinical exposure; FIG. 3A-D
Protocol: as §3
NCI-H69 (“H69”), NCI-H1963 (“H1963”), and NCI-H526 (“H526”) cells were obtained from the American Type Culture Collection (ATCC, Manassas, VA). The cells were maintained in 10% RPMI-1640 media. […]
Five million cells were inoculated subcutaneously into the right flank of the mice on day 0. […] Tumor volume was calculated two to three times weekly. Measurements of the length (L) and width (W) of the tumor were taken via electronic caliper and the volume was calculated according to the following equation: […]
as §6, with “TGImax is the maximum tumor growth inhibition during the experiment.” left out

[2] = single agent, H1963 tumor bearing mice

B1: ADC-1 (conjugate)
heavy: EVQLVQSGAEVKKPGESLKISCKGSGYSFTSSWINWVRQMPGKGLEWMGRIYPGEGDTNYNGNFEGQVTISADKSISTAYLQWSSLKASDTAMYYCTRGLVMDYWGQGTLVTVSS[human IgG1 constant region with changes not printed]
light: EIVLTQSPATLSLSPGERATLSCRASQSVDYNGISYMHWYQQKPGQAPRLLIYAASNVQSGIPARFSGSGSGTDFTLTISSLEPEDFAVYYCQQSIEDPPTFGGGTKVEIKRTVAAPSVFIFPPSDEQLKSGTASVVCLLNNFYPREAKVQWKVDNALQSGNSQESVTEQDSKDSTYSLSSTLTLSKADYEKHKVYACEVTHQGLSSPVTKSFNRGEC
NCI-H524
  IC50: 330 pM
NCI-H526
  IC50: 100 pM
COR-L95
  IC50: 330 pM and 290 pM
NCI-H146
  IC50: 50 pM
NCI-H1963
  IC50: 4630 pM
SW-1271
  IC50: > 100000 pM
SBC-5
  IC50: > 100000 pM
SCLC cell lines; NCI-H524, NCI-H526, COR-L96, NCI-H146, NCI-H1963FP5
  growth inhibitory IC50 against five SCLC cell lines positive for SEZ6 mRNA: sub-to low-nM
SCLC cell lines; SW-1271 and SBC-5
  activity in the two SCLC cell lines negative for SEZ6 mRNA: not active
H1963 tumor; CDX, H1963
  therapeutic response: durable response (no detectable disease)
H1963 tumor; [2]
  TGD (tumor growth delay): > 472%
  TGImax (maximum tumor growth inhibition): 94%
H526 tumor
  TGD (tumor growth delay): 336.7%
  TGImax (maximum tumor growth inhibition): 97.4%
H526 tumor; vehicle treated tumors grew to >2000 mm^3 in 17 days
  time with no measurable disease: > 30 days
LU95 SCLC PDX tumor
  therapeutic response: durable response (no detectable disease)
LU149 SCLC PDX tumor
  therapeutic response: durable response (no detectable disease)
[1]
  efficacy compared with topotecan (second line standard of care): more efficacious
